Experimental data published in PubChem BioAssay (NCI).
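In this assay, cells in 96-well plates receive the compound at five concentrations for 48 hours. Endpoints are linearly interpolated between the surrounding concentrations. GI50 is the concentration that inhibits growth by half. TGI is the concentration that stops growth completely.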

test system: NCI-H322M lung; assay: inhibition of tumour cell growth, NCI panel, 48 h

`O=C1C(c2ccc([N+](=O)[O-])cc2)=[N+]([O-])c2ccc([N+](=O)[O-])cc21` and `O=C(/C=C/c1ccccc1F)c1ccc([N+](=O)[O-])cc1` cannot be ordered by TGI: > 100 µM for the first, > 100 µM for the second.

Going from `COc1ccc2nc3cc(Cl)ccc3c(Nc3ccc(O)c(CN4CCN(C)CC4)c3)c2c1` to `Nc1ncc(-c2ccc3ncnc(N4CCc5ccc(Cl)cc54)c3c2)cn1`, the TGI rises from 3.46 µM to 67 µM (19-fold).

Compared with `CCOC(=O)C1C(=O)CN2CCc3c([nH]c4ccccc34)C12C(=O)OCC` (centres undefined), `CCOC(=O)C(Cc1c(C=O)[nH]c2ccccc12)(NC(=O)c1ccccc1)C(=O)OCC` is lower in TGI: > 100 µM for the first, 33.5 µM for the second.

`Clc1ccc(OCCSCCCCCCCCCCSCCOc2ccc(Cl)cc2)cc1` and `Cc1ccc(S(=O)(=O)NNC(=O)Nc2ccc(Cl)cc2)cc1` cannot be ordered by TGI: > 100 µM for the first, > 100 µM for the second.

`O=C1/C(=N\O)C2CCC1C2` (centres undefined) and `NC1CCCCC1` cannot be ordered by TGI: > 100 µM for the first, > 562 µM for the second.

`CC(C)Oc1c(N(Cc2ccccc2)c2ccccc2C2SCCCS2)c(=O)c1=O` and `C[C@H](NC1=CC(=O)C(N[C@@H](C)[C@H](O)c2ccccc2)=CC1=O)[C@H](O)c1ccccc1` cannot be ordered by TGI: > 100 µM for the first, > 100 µM for the second.

`CC1(c2ccccc2)N=C(C(N)=O)c2[nH]cnc2N1` (centres undefined) and `CN(C)CCCNC(=O)c1c(-c2cccnc2)cnc2ccccc12` cannot be ordered by TGI: > 100 µM for the first, > 100 µM for the second.

`COc1cc(Nc2c(C#N)[n+]([O-])c3ccccc3[n+]2[O-])cc(OC)c1OC` and `COc1ccc(/C=N/Nc2nc(-c3cc4oc(=O)n(C)c4cc3Cl)cs2)cc1OC` cannot be ordered by TGI: > 100 µM for the first, > 100 µM for the second.

`CS(=O)(=O)c1ccc(Oc2cc(F)cc(C#N)c2)c2c1[C@H](O)[C@H](F)[C@H]2F` and `CCSC(=O)N1c2ccc(OC)cc2C=CC1C#N` (centres undefined) cannot be ordered by TGI: > 100 µM for the first, > 1000 µM for the second.

`O=C(OCc1ccccc1)N1N=NC2C1C1CC(OCc3ccccc3)(OCc3ccccc3)C2O1` (centres undefined) and `Nc1nc[n+](Cc2ccccc2)c2ncn(Cc3ccccc3)c12` cannot be ordered by TGI: > 100 µM for the first, > 100 µM for the second.

Compared with `CCCCCCSC[C@H](OC(C)=O)[C@@H](OC(C)=O)[C@@H](OC(C)=O)[C@@H](COC(C)=O)OC(C)=O`, `CCCCCCCCCCCCCCCCCC(=O)NCC(COP(=O)([O-])OCC[N+](C)(C)C)OC` (centres undefined) is lower in TGI: > 100 µM for the first, 26.3 µM for the second.

`NC(=Nc1ccc(S(=O)(=O)Nc2cnc3ccccc3n2)cc1)/N=C(/N)Nc1ccc(Br)cc1` and `O=C(Nc1ccc(F)cc1)C(=O)C(C(=O)c1ccccc1F)C1OC(=O)c2ccccc21` (centres undefined) cannot be ordered by TGI: > 100 µM for the first, > 100 µM for the second.

First: COc1cc(/C=C2\CCc3ccccc3C2=O)ccc1O
Second: COc1oc(C(=O)NC2CCCCC2)c(-c2ccc(Cl)cc2)c1S(=O)(=O)c1ccccc1
The TGI of the first is lower: 31 µM for the first, > 100 µM for the second.

First: CN(C)CCOc1ccc2[nH]c(C(=O)N3CC(CCl)c4c3cc(NC(=O)OCc3ccc([N+](=O)[O-])cc3)c3ccccc43)cc2c1 (centres undefined)
Second: O=C1CSC(c2cccc([N+](=O)[O-])c2)N1c1ccc(-c2ccc(-n3c(-c4ccccc4)nc4ccccc4c3=O)cc2)cc1 (centres undefined)
The TGI of the first is lower: 2.34 µM for the first, > 100 µM for the second.

Compared with `COc1ccc(N[C@H]([C@@H](c2ccccc2)S(=O)c2ccc(C)cc2)C(F)(F)F)cc1` (some centres undefined), `Cc1ccc(C(=Nc2ccccc2)N=P(c2ccccc2)(c2ccccc2)c2ccccc2)cc1` is lower in TGI: > 100 µM for the first, 6.32 µM for the second.

Compared with `CCN(Cc1ccccc1F)c1ccc(CO)c(Cl)c1`, `CCN(Cc1cccnc1)c1ccc(CO)c(Cl)c1` is higher in TGI: 23.4 µM for the first, > 100 µM for the second.

`CC=C(CBr)CCC(Br)C(C)(C)Cl` (mixture of isomers) and `COc1cc2cc(c1Cl)N(C)C(=O)C[C@H](OC(=O)[C@H](C)N(C)C(=O)CCS)C[C@]1(C)O[C@H]1[C@H](C)[C@@H]1C[C@@](O)(NC(=O)O1)[C@H](OC)/C=C/C=C(\C)C2` cannot be ordered by TGI: > 10 µM for the first, > 50 µM for the second.

First: CN(C)c1ccc(/C=C2\C[C@H]3[C@@H]4CCc5cc(OCCN6CCCC6)ccc5[C@H]4CC[C@]3(C)[C@H]2O)cc1
Second: CC(C)=Cc1cc2c(cc1O)CCC1C2CC[C@@]2(C)C1CC[C@@H]2O (some centres undefined)
The TGI of the first is 1.8-fold higher: 33.3 µM for the first, 18 µM for the second.

`CSc1nc2c(nc(N)n2C2OC(CO)C(O)C(O)C2O)c(=O)n1C` (centres undefined) and `COC(=O)C1CC(C(=O)OC)c2nc3cc([N+](=O)[O-])ccc3nc21` (centres undefined) cannot be ordered by TGI: > 100 µM for the first, > 100 µM for the second.

Compared with `CN1CCC(SC2Cc3cc(Cl)ccc3Sc3ccccc32)CC1` (centres undefined), `c1ccc2nc3c(cc2c1)Sc1cc2ccccc2[n+]2c1N3CC2` is higher in TGI: 26.2 µM for the first, > 100 µM for the second.

`Cc1cc(C)c2ccc(N3CCNCC3)nc2n1` and `Cc1cc(-c2ccc[nH]2)on1` cannot be ordered by TGI: > 100 µM for the first, > 100 µM for the second.

Compared with `COc1ccc(-c2nn(C(=O)NCCN(C)C)cc2-c2ccncc2)cc1Cl`, `CCO.CCO.Oc1ccc(Nc2ncns2)cc1.Oc1ccc(Nc2ncns2)cc1.[Ti]` is lower in TGI: > 100 µM for the first, 93.6 µM for the second.

First: Nc1ncc(-c2ccc3ncnc(N4CCc5ccc(Cl)cc54)c3c2)cn1
Second: c1ccc2nc3c(cc2c1)Sc1cc2ccccc2[n+]2c1N3CC2
The GI50 of the first is 42-fold lower: 1.27 µM for the first, 53.6 µM for the second.

Compared with `CS(=O)(=O)c1ccc(Oc2cc(F)cc(C#N)c2)c2c1[C@H](O)[C@H](F)[C@H]2F`, `CCSC(=O)N1c2ccc(OC)cc2C=CC1C#N` (centres undefined) is lower in GI50: > 100 µM for the first, 2.6 µM for the second.

Going from `CCN(Cc1ccccc1F)c1ccc(CO)c(Cl)c1` to `CCN(Cc1cccnc1)c1ccc(CO)c(Cl)c1`, the GI50 rises from 3.85 µM to 28.2 µM (7.3-fold).

First: COc1cc2cc(c1Cl)N(C)C(=O)C[C@H](OC(=O)[C@H](C)N(C)C(=O)CCS)C[C@]1(C)O[C@H]1[C@H](C)[C@@H]1C[C@@](O)(NC(=O)O1)[C@H](OC)/C=C/C=C(\C)C2
Second: COc1ccc(-c2nn(C(=O)NCCN(C)C)cc2-c2ccncc2)cc1Cl
The GI50 of the first is lower: < 0.005 µM for the first, 27.2 µM for the second.

Compared with `Cc1ccc(C(=Nc2ccccc2)N=P(c2ccccc2)(c2ccccc2)c2ccccc2)cc1`, `CCO.CCO.Oc1ccc(Nc2ncns2)cc1.Oc1ccc(Nc2ncns2)cc1.[Ti]` is 14-fold higher in GI50: 1.56 µM for the first, 22 µM for the second.
